This passage reports cell viability results from the supplement of paper PMC9588766.

Each structure is given as a SMILES string. Over roughly 1,900 compounds, “cell viability of compound + 1 nM pemigatinib relative to pemigatinib-only (DMSO) wells” has its median near 0.95; the lowest 2% begin near 0.22. The list shows a part of the results.

The experiment relates to PDC-DUC18828. Nature of the experiment: cell viability of compound + 1 nM pemigatinib relative to pemigatinib-only (DMSO) wells (fraction); PDC-DUC18828 is a patient-derived cholangiocarcinoma cell line; higher = less growth inhibition. The conditions noted are these: first compound 1 µM; pemigatinib concentration 1 nM; 72 h. On the procedure:
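Selleck Bioactive library screen in the patient-derived FGFR2 fusion-positive ICC cell line PDC-DUC18828 (500 cells/well). Each compound was tested at 1 uM with 1 nM pemigatinib, in triplicate, for 72 h. Viability was read by CellTiter-Glo and normalised to plate DMSO controls. Value is the paper's averaged normalised viability.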
Consider `COc1ccc(-c2cc(=O)c3c(OC)c(OC)c(OC)c(OC)c3o2)cc1OC` [Nobiletin] + CCN1C(=O)N(c2c(F)c(OC)cc(OC)c2F)Cc2cnc3[nH]c(CN4CCOCC4)cc3c21 [pemigatinib], for which the cell viability came out at 0.904.

`CCOC(=O)N1c2ccc(C(F)(F)F)cc2[C@@H](N(Cc2cc(C(F)(F)F)cc(C(F)(F)F)c2)C(=O)OC)C[C@H]1CC` [Torcetrapib] + CCN1C(=O)N(c2c(F)c(OC)cc(OC)c2F)Cc2cnc3[nH]c(CN4CCOCC4)cc3c21 [pemigatinib]: the cell viability worked out at 0.968.

Turning to `Cc1ccc(C(=O)Nc2cccc(C(F)(F)F)c2)cc1Nc1nc(-c2cccnc2)nc2c1cnn2C` + CCN1C(=O)N(c2c(F)c(OC)cc(OC)c2F)Cc2cnc3[nH]c(CN4CCOCC4)cc3c21 [pemigatinib], the cell viability is 0.908.

In the case of `O=c1cc[nH]c(=O)[nH]1` [Uracil] + CCN1C(=O)N(c2c(F)c(OC)cc(OC)c2F)Cc2cnc3[nH]c(CN4CCOCC4)cc3c21 [pemigatinib], the cell viability came to 1.02.

Take `Cc1cc(C)nc(NS(=O)(=O)c2ccc(NC(=S)NC(=O)COc3ccc(Br)cc3Cl)cc2)n1` + CCN1C(=O)N(c2c(F)c(OC)cc(OC)c2F)Cc2cnc3[nH]c(CN4CCOCC4)cc3c21 [pemigatinib]: the cell viability turned out to be 1.05.

Consider `O=C(Nc1cccnc1)N1CCC(Cc2cccc(Oc3ccc(C(F)(F)F)cn3)c2)CC1` + CCN1C(=O)N(c2c(F)c(OC)cc(OC)c2F)Cc2cnc3[nH]c(CN4CCOCC4)cc3c21 [pemigatinib], for which the cell viability turned out to be 0.918.

Take `Cc1cccc(-c2nn3c(c2-c2ccnc4ccc(C(N)=O)cc24)CCC3)n1` + CCN1C(=O)N(c2c(F)c(OC)cc(OC)c2F)Cc2cnc3[nH]c(CN4CCOCC4)cc3c21 [pemigatinib]: the cell viability is 1.03.

Take `CC(C)c1nc(CN(C)C(=O)N[C@@H](CCN2CCOCC2)C(=O)N[C@H](CC[C@H](Cc2ccccc2)NC(=O)OCc2cncs2)Cc2ccccc2)cs1` [Cobicistat (GS-9350)] + CCN1C(=O)N(c2c(F)c(OC)cc(OC)c2F)Cc2cnc3[nH]c(CN4CCOCC4)cc3c21 [pemigatinib]: the cell viability is 0.913.

For the compound `O=C(O)c1ccc(C=C2SC(=S)N(c3cccc(C(F)(F)F)c3)C2=O)cc1` + CCN1C(=O)N(c2c(F)c(OC)cc(OC)c2F)Cc2cnc3[nH]c(CN4CCOCC4)cc3c21 [pemigatinib], the cell viability came out at 0.962.

For the compound `COc1ccc(-c2cc(=O)c3c(OC)c(OC)c(OC)c(OC)c3o2)cc1` [Tangeretin] + CCN1C(=O)N(c2c(F)c(OC)cc(OC)c2F)Cc2cnc3[nH]c(CN4CCOCC4)cc3c21 [pemigatinib], the cell viability is 0.928.
